Source: the BET-seq Pho4 binding data (Le et al. 2018)
Some of the results follow. The energies were worked out here from pooled read counts, against the library average; single values are noisy.

target: T1, Pho4 (S. cerevisiae) (UniProt P07270); experiment: relative binding free energy (BET-seq); higher = weaker binding; conditions: reference: library average
T1 sequence: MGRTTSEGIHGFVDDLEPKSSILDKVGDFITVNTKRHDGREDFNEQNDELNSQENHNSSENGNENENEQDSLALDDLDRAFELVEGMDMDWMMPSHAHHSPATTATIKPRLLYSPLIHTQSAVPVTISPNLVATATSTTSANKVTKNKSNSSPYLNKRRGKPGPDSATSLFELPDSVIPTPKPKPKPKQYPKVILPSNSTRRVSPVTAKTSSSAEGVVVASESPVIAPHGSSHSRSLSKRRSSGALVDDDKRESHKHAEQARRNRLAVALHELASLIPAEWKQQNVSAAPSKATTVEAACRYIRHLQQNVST

Sequence | relative binding free energy
TGTCACACGTGGAGGG | -0.02 kcal/mol
TTGGGCACGTGTTGGA | 0.04 kcal/mol
GTTGGCACGTGAGCGG | 0.07 kcal/mol
AGCGTCACGTGTAAAG | 0.14 kcal/mol
ATGGTCACGTGAATTA | 0.42 kcal/mol
GTGGCCACGTGCTTGG | -0.17 kcal/mol
GGGTACACGTGTTAGC | 0.07 kcal/mol
TTATGCACGTGGGGGC | -0.12 kcal/mol
TGGTACACGTGGTTGC | 0.22 kcal/mol
TTTCGCACGTGGTTCG | -0.12 kcal/mol
ATGTACACGTGGTAAA | 0.05 kcal/mol
GAATGCACGTGGGTCT | -0.09 kcal/mol
TTAAACACGTGGTGCT | -0.06 kcal/mol
TCCGACACGTGTTGGT | 0.3 kcal/mol
TCTGACACGTGGTCGT | 0.02 kcal/mol
GTGGTCACGTGGAGGT | 0.17 kcal/mol
GGAGTCACGTGGTGCG | 0.13 kcal/mol
TCTTGCACGTGCTTGT | -0.01 kcal/mol
ATATTCACGTGTTACG | 0.19 kcal/mol
GGGAACACGTGTGGGA | 0.07 kcal/mol
TAGGTCACGTGGTCTT | 0.01 kcal/mol
GGTAGCACGTGCGGTA | 0.02 kcal/mol
GGAAGCACGTGTCGTG | -0.15 kcal/mol
GTCAGCACGTGGGCGG | -0.22 kcal/mol
TAGTGCACGTGTCATG | 0.02 kcal/mol

Sequence | relative binding free energy
GTTTACACGTGGATCA | 0.28 kcal/mol
TTGTTCACGTGAATCT | 0.47 kcal/mol
GCTTGCACGTGAGTAG | 0.34 kcal/mol
CAAGGCACGTGGGGGA | -0.23 kcal/mol
AGGGACACGTGGAGGG | -0.02 kcal/mol
TGCCTCACGTGGATGT | 0.3 kcal/mol
AAGGTCACGTGTGTAG | 0.15 kcal/mol
TGATACACGTGGTAGA | -0.05 kcal/mol
TGTGGCACGTGGTTCT | -0.19 kcal/mol
AAGGTCACGTGCCGGG | 0.05 kcal/mol
TTTTGCACGTGATGGT | 0.2 kcal/mol
TCTTGCACGTGAGGAG | 0.27 kcal/mol
AGGGGCACGTGGCGCC | -0.26 kcal/mol
AGATTCACGTGGTGAA | 0.3 kcal/mol
TTTTGCACGTGGTCAA | -0.14 kcal/mol
ATAGTCACGTGAGATG | 0.24 kcal/mol
GGGAACACGTGATGAG | 0.39 kcal/mol
TATTACACGTGTAGAG | -0.1 kcal/mol
GTTTTCACGTGAGGCT | 0.4 kcal/mol
TTTGCCACGTGCTAGT | -0.14 kcal/mol
TACGGCACGTGATGGT | -0.09 kcal/mol
GTGGGCACGTGGCAGA | -0.14 kcal/mol
GTTGTCACGTGCTTGA | 0.18 kcal/mol
GGTGTCACGTGTGTCA | 0.04 kcal/mol
CGGGGCACGTGACGTT | -0.08 kcal/mol

Sequence | relative binding free energy
GGCTACACGTGATAGT | 0.46 kcal/mol
ACGTACACGTGTTGTA | 0.05 kcal/mol
TTCGGCACGTGGTTAG | -0.04 kcal/mol
TGTTTCACGTGTAGTG | 0.38 kcal/mol
TGTATCACGTGGACGG | 0.36 kcal/mol
GGGATCACGTGGCGGA | 0.24 kcal/mol
CGGTGCACGTGGTAGC | 0 kcal/mol
AAATGCACGTGCTTTT | 0.07 kcal/mol
GTCTACACGTGGCGTT | 0.14 kcal/mol
TTGTTCACGTGTCAGG | 0.3 kcal/mol
TTTGACACGTGTTGGA | 0.12 kcal/mol
TGTAACACGTGATGGT | 0.1 kcal/mol
TGCTTCACGTGCGGTG | 0.2 kcal/mol
TGAGTCACGTGGTAGG | 0.02 kcal/mol
ATTGGCACGTGTGAAT | 0.01 kcal/mol
AATTTCACGTGAGGAT | 0.38 kcal/mol
TGGGACACGTGGCGAG | -0.12 kcal/mol
TTAGGCACGTGAGGCT | 0.12 kcal/mol
GTGGACACGTGGCATG | -0.01 kcal/mol
AGAGGCACGTGGTCGT | -0.09 kcal/mol
TTATTCACGTGTCAGA | 0.31 kcal/mol
TGTTTCACGTGAGTGT | 0.3 kcal/mol
GTTATCACGTGACTGG | 0.35 kcal/mol
GGGGCCACGTGATCGT | 0.05 kcal/mol
GACGTCACGTGAGGGT | 0.14 kcal/mol

Sequence | relative binding free energy
CGTTTCACGTGTGGTA | 0.52 kcal/mol
CGCAACACGTGGGGTT | -0.08 kcal/mol
TGTTGCACGTGGCTTC | 0.02 kcal/mol
ATCGGCACGTGCGGTT | -0.06 kcal/mol
GAGAGCACGTGGGTTG | -0.15 kcal/mol
TGGAGCACGTGGCTTT | -0.19 kcal/mol
TAAGTCACGTGGGTCG | 0.03 kcal/mol
TATGTCACGTGAGCTA | 0.24 kcal/mol
TTTGGCACGTGGTAGT | -0.18 kcal/mol
GATGTCACGTGAGTAT | 0.34 kcal/mol
GAGTACACGTGGAGCG | 0.18 kcal/mol
AGGGCCACGTGCGGGA | -0.16 kcal/mol
AGTTTCACGTGAAGGG | 0.46 kcal/mol
AACGGCACGTGTCGGT | -0.14 kcal/mol
GGTGACACGTGAGGGA | 0.27 kcal/mol
GGTTTCACGTGGTCAT | 0.23 kcal/mol
GTTCGCACGTGTGATT | 0.13 kcal/mol
TTGTGCACGTGCTGGG | -0.03 kcal/mol
TTTTCCACGTGGGGTG | -0.05 kcal/mol
TGCGACACGTGAGTGG | 0.29 kcal/mol
GGCGCCACGTGTGTAG | 0.01 kcal/mol
GTATGCACGTGGGTAA | -0.12 kcal/mol
GTTCGCACGTGGCTGG | -0.17 kcal/mol
TACTACACGTGTTGGG | 0.08 kcal/mol
TGGTCCACGTGCGTGG | -0.1 kcal/mol

Sequence | relative binding free energy
GTTTACACGTGATCGT | 0.04 kcal/mol
AGGAACACGTGTAAGT | 0.22 kcal/mol
TGTTACACGTGTAATG | 0.16 kcal/mol
TATAGCACGTGTCAGT | -0.11 kcal/mol
TGGGTCACGTGAGAAT | 0.5 kcal/mol
TGTTACACGTGGGTTG | -0.01 kcal/mol
TCTTTCACGTGTTGCT | 0.33 kcal/mol
TGTCGCACGTGGGGAC | -0.26 kcal/mol
TTAAGCACGTGAGGTT | 0.2 kcal/mol
TGGCGCACGTGATGAG | 0.08 kcal/mol
CTGTGCACGTGTGGGG | -0.03 kcal/mol
ATTGGCACGTGATGTG | -0.02 kcal/mol
TTGTGCACGTGGTTTC | -0.06 kcal/mol
GGAGTCACGTGGGTGC | 0.09 kcal/mol
AGGGCCACGTGAATTG | 0.3 kcal/mol
TTAGTCACGTGTCAGA | 0.12 kcal/mol
GGCTACACGTGAGGGC | 0.35 kcal/mol
TATTACACGTGGGCTT | 0.06 kcal/mol
TTTGCCACGTGTGAGC | 0.07 kcal/mol
CGGGCCACGTGTTTTT | 0.02 kcal/mol
TCCGTCACGTGTTTGT | -0.02 kcal/mol
GTAGGCACGTGGCGCT | -0.2 kcal/mol
TACTACACGTGTTGTT | 0.09 kcal/mol
TATGGCACGTGACGTA | -0.1 kcal/mol
CATGTCACGTGTAAGG | 0.23 kcal/mol

Sequence | relative binding free energy
ATTGCCACGTGGGGGG | -0.22 kcal/mol
ATGGTCACGTGATTAG | 0.19 kcal/mol
ATCTACACGTGTATTT | 0.11 kcal/mol
GTTGACACGTGTTTAT | 0.15 kcal/mol
GTAGGCACGTGGGATC | -0.12 kcal/mol
TTGTACACGTGGGCGT | -0.07 kcal/mol
GTGAACACGTGAGGGC | 0.25 kcal/mol
GTGTCCACGTGGGCAT | -0.09 kcal/mol
GAGGCCACGTGTCGGG | -0.04 kcal/mol
AGTTTCACGTGTGTAG | 0.24 kcal/mol
TTGGTCACGTGCAAGA | 0.19 kcal/mol
AGGCTCACGTGAGGGT | 0.32 kcal/mol
CGTATCACGTGAGATG | 0.27 kcal/mol
TTGCACACGTGGTTGA | 0.01 kcal/mol
GAGGGCACGTGAGTAT | 0.23 kcal/mol
AGTGTCACGTGTAGTA | 0.06 kcal/mol
TTTGACACGTGTTTAT | 0.04 kcal/mol
AGGTTCACGTGGTAAC | 0.31 kcal/mol
GAAATCACGTGCAGGG | 0.32 kcal/mol
GGCGGCACGTGCTGTT | -0.13 kcal/mol
GATTGCACGTGGAGAT | 0.15 kcal/mol
